Measurements taken from US20140057851A1, “Anti-Angiogenic Gene Therapy With Soluble VEGF Receptors -1, -2 and -3 Together With Paclitaxel Prolongs Survival Of Mice With Human Ovarian Carcinoma” (WKD Holding Oy, priority 2012, published 2014).
Where two headings read alike, the source gives them in different places.

Test system: SKOV-3m cells
Details: for mean survival: after start of treatment
[1] = at the end of the follow-up, mean ± SEM
[2] = study groups at the end of the follow-up, mean ± SEM

Compound	mean survival (mean ± SEM)	Tumor weight (mean, g) [1]	MRI volume (mean, mm^3) [2]	MRI volume (mean, mm^3) (mouse, in vivo)	Tumor weight (mean, g) (mouse, in vivo)	effect on mean tumor weight (result in words)	effect on survival (result in words)	effect on tumor volume (result in words)
N.N.O=C([O-])C1(C(=O)[O-])CCC1.[Pt+2] [Carboplatin]	13 ± 1 days	2.0 ± 0.3 g	1174.6 ± 279 mm^3	–	–	–	–	–
CC(=O)O[C@H]1C(=O)[C@@]2(C)[C@H]([C@H](OC(=O)c3ccccc3)[C@]3(O)C[C@H](OC(=O)[C@H](O)[C@@H](NC(=O)c4ccccc4)c4ccccc4)C(C)=C1C3(C)C)[C@]1(OC(C)=O)CO[C@@H]1C[C@@H]2O [Paclitaxel]	15 ± 1 days	–	–	1333.5 ± 356 mm^3	3.1 ± 0.6 g	–	–	–
Bevacizumab	–	2.7 ± 0.4 g	1342.1 ± 184 mm^3	–	–	did not have any significant effect	did not have any significant effect	did not have any significant effect
